Measured values from PubChem BioAssay AID686979 (National Center for Advancing Translational Sciences (NCATS), 2013).
About 50,000 (12%) of roughly 420,000 compounds were called active. The inconclusive results got no clear call from the source; some entries with a clear call stand among them for comparison. Calls come from the whole dose curve; as a rule, active = well fitted inhibition curve with a large enough effect; inconclusive = small, poorly fitted or top-dose-only effect; inactive = flat fitted curve, though single readings scatter. Potencies of inconclusive entries are left out as doubtful fits.
% is set by controls: 0 for no effect and ±100 for the full control effect; potency is the fitted concentration of half-maximal effect; tags give direction and shape of the fitted curve.

Assay: qHTS for Inhibitors of human tyrosyl-DNA phosphodiesterase 1 (TDP1): qHTS in cells in presence of CPT; note: nearly all actives have a fitted effect of over 55% in size
Conditions: chicken DT40 Tdp1-/-;hTDP1 cells + 20 nM CPT, ATP luminescence, 48 h; activity change, negative = growth inhibition: at 46.2 µM (top of the series) unless noted
Method in brief: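 Chicken DT40 Tdp1-/- cells complemented with human TDP1, 400 cells/well, exposed to compounds plus 20 nM camptothecin for at least 48 h at 37 C; viability read as ATP content by CellTiter-Glo luminescence.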
With `COc1cc(CN2CC(=O)N(c3cccc(Cl)c3C)C2=S)cc(OC)c1OC` the Potency was active: 23.1 µM. For `Fc1ccc(CNCc2ccco2)cc1`, the “activity change, negative = growth inhibition” value was inactive: -22.7%. In the case of `Cc1sc(NC(=O)C2C3CCC(O3)C2C(=O)O)c(C(=O)OC(C)C)c1-c1ccc(Cl)cc1` (stereo unspecified), the Potency is reported as inconclusive [inhibitor, single point]. With `COc1cc(-c2nc3cnccn3c2Nc2ccc(C)cc2)ccc1O` the Potency was inconclusive [inhibitor, single point]. With `CC(C)CN(C(=O)COC(=O)Cc1cccc2ccccc12)c1c(N)n(Cc2ccccc2)c(=O)[nH]c1=O` the “activity change, negative = growth inhibition” value was inactive: -1.03%. For `C=CC[C@H](CC(=O)NCCO)C(=O)N[C@H](COC(=O)[C@@H](CC=C)Cc1ccc(F)cc1)C(C)(C)C`, the Potency was inconclusive [inhibitor, single point]. For `COc1ccc(NC(=O)CCS(=O)(=O)c2ccc3c(c2)NC(=O)C(C)S3)cc1OC` (stereo unspecified), the Potency was inconclusive [inhibitor, single point]. With `O=C(NNC(=O)c1ccccc1F)c1ccc(-c2ccccc2Cl)o1` the “activity change, negative = growth inhibition” value was inactive: 2.59%. With `O=C(NCc1ccccc1)C(c1ccc(-c2ccccc2)cc1)N1CCN(CCN2CCOCC2)CC1` (stereo unspecified) the Potency was active: 16.4 µM. In the case of `O=C(Nc1nnc(CCc2ccccc2)s1)C1CCN(C(=O)c2ccco2)CC1`, the Potency is reported as inconclusive [inhibitor, single point]. With `COc1cccc(NC(=O)C(Sc2nnc(Nc3ccccc3C)s2)c2ccccc2)c1` (stereo unspecified) the Potency was active: 16.4 µM. For `O=C1/C(=C/c2ccncc2)SC(=S)N1N1CCOCC1`, the Potency was active: 13 µM. In the case of `CCOC(=O)c1[nH]cnc1C(=O)NCc1ccccc1`, the “activity change, negative = growth inhibition” value is reported as inactive: -5.83%. In the case of `COC(=O)C1=C(O)/C(=C\c2ccc(CNC(=O)C(=O)Nc3ccc(C)cc3)o2)N=C1C`, the Potency is reported as inconclusive [inhibitor, partial curve]. For `Cc1ccc(-c2cc(C(=O)N3CCOCC3)no2)cc1`, the “activity change, negative = growth inhibition” value was inactive: -9.88%. With `CN(Cc1nc2ccccc2c(=O)[nH]1)c1ccccc1` the Potency was inconclusive [inhibitor, single point]. In the case of `c1ccc2c(c1)OC(CCCN1CCCCC1)c1ccccc1S2` (stereo unspecified), the Potency is reported as inconclusive [inhibitor, single point]. For `O=C(NCc1ccccc1)c1cc(C2CCCCN2C(=O)c2ccccc2)on1` (stereo unspecified), the Potency was active: 18.4 µM. With `COc1cc2c(O)cc(C(=O)O)c(-c3cc(OC)c(OC)c(OC)c3)c2cc1OC` the “activity change, negative = growth inhibition” value was inactive: -13.8%. For `CC1C(=O)N(c2ccc(S(=O)(=O)N(C)C)cc2)C1(/C=C/c1ccccc1)C(=O)NC1CCCC1` (stereo unspecified), the Potency was inconclusive [inhibitor, single point]. With `CCc1ccc2[nH]c(=O)c(CN(Cc3ccccc3)Cc3nnnn3Cc3ccco3)cc2c1` the Potency was inconclusive [inhibitor, single point]. For `Cc1cccc(C(O)c2ncc(-c3cccc(C(F)(F)F)c3)[nH]2)c1C` (stereo unspecified), the Potency was inconclusive [inhibitor, full curve, poor fit]. With `Cc1ccc(C(=O)CSc2nnc(N)s2)c(C)c1` the “activity change, negative = growth inhibition” value was inactive: 1.92%. With `COC(=O)c1sc2ncccc2c1-n1c(C)ccc1C` the “activity change, negative = growth inhibition” value was inactive: -15.9%. For `CCn1c(N2CCN(C(=S)NCCc3ccccc3)CC2)nc2ccccc21`, the Potency was inconclusive [inhibitor, partial curve]. For `COc1ccc(N2C(=O)CCC(C(=O)c3ccccc3)=C2C)cc1`, the Potency was inconclusive [inhibitor, partial curve]. In the case of `CCOC(=O)C1=C(CN2CCc3ccccc32)NC(=O)NC1c1cccc([N+](=O)[O-])c1` (stereo unspecified), the Potency is reported as active: 14.1 µM. In the case of `COc1cccc(CCNC(=O)c2cc(COc3ccc(C)c(C)c3)on2)c1OC`, the Potency is reported as inconclusive [inhibitor, single point]. For `O=C(CN1C(=O)/C(=C/c2ccc(F)cc2)SC1=S)N1CCN(CCc2ccccn2)CC1`, the Potency was active: 6.51 µM. In the case of `CCCSc1nnc2c(n1)OC(c1ccc(Br)s1)Nc1ccccc1-2` (stereo unspecified), the “activity change, negative = growth inhibition” value is reported as inactive: -8.34%. In the case of `O=C(COc1ccc(Cl)cc1)Nc1ccc(Cc2ccncc2)cc1`, the Potency is reported as inconclusive [inhibitor, single point]. With `COc1ccc(C(=O)c2sc3nc(C)cc(-c4cccs4)c3c2N)cc1OC` the Potency was inconclusive [inhibitor, single point]. For `Cc1ccc(C(=O)NCC2(c3ccccc3)CCCC2)cc1`, the Potency was active: 11.6 µM. With `CCOC(=O)N1CCN(C(=O)c2ccc(C)c(S(=O)(=O)Nc3cccc(C)c3C)c2)CC1` the Potency was inconclusive [inhibitor, single point]. In the case of `COC(=O)c1ccc(N2CCC(c3cc(-c4ccc(OC)cc4)n[nH]3)CC2)c([N+](=O)[O-])c1`, the Potency is reported as active: 20.6 µM. With `CCOc1ccccc1NC(=O)C(CC)Sc1nc2ncccc2[nH]1` (stereo unspecified) the Potency was inconclusive [inhibitor, single point]. In the case of `O=C(NCc1ccc2c(c1)CCN2C(=O)c1ccccc1)c1ccccc1`, the Potency is reported as inconclusive [inhibitor, single point]. With `Cc1ccc(-n2ncc3c(N4CCC(C(N)=O)CC4)ncnc32)cc1` the “activity change, negative = growth inhibition” value was inactive: -0.778%. For `Cc1cccc(NC(=O)CSc2nnnn2-c2ccc3c(c2)OCCO3)n1`, the activity change, negative = growth inhibition was inconclusive: -34.3% [inhibitor]. For `CCC1CN(C(=O)Nc2cccc3c2CCCC3)c2cc(Cl)ccc2O1` (stereo unspecified), the Potency was inconclusive [inhibitor, single point]. With `O=C(O)CSc1nnc(-c2ccc(Cl)cc2Cl)n1Cc1ccccc1` the “activity change, negative = growth inhibition” value was inactive: -0.0319%. With `COc1ccc(CCNC(=O)CSc2cn(CCNC(=O)c3cccc(C(F)(F)F)c3)c3ccccc23)cc1OC` the Potency was active: 20.6 µM. In the case of `CC(=O)c1cccc(OCC(=O)Nc2cccc(C(=O)Nc3c(C)n(C)n(-c4ccccc4)c3=O)c2)c1`, the Potency is reported as active: 13 µM. For `CC(=O)Nc1ccc(S(=O)(=O)N2CCN(c3nc4ccccc4n3CC(C)C)CC2)cc1`, the “activity change, negative = growth inhibition” value was inactive: -14.8%. For `O=C(Nc1cc(C(F)(F)F)ccc1-n1cncn1)c1ccc([N+](=O)[O-])o1`, the Potency was active: 10.3 µM. With `COc1ccc(NC(=O)c2c(-c3ccccc3)noc2C)c(OC)c1` the “activity change, negative = growth inhibition” value was inactive: -27.6%. For `O=C1N=c2ccc([N+](=O)[O-])cc2=C1c1sc(=O)[nH]c1O`, the Potency was inconclusive [inhibitor, single point]. For `Cc1ccc(Nc2nc(NCc3ccco3)nc3nccnc23)cc1C`, the Potency was inconclusive [inhibitor, partial curve, poor fit]. For `Cc1ccc(-n2nnnc2-c2ccccc2)cc1`, the activity change, negative = growth inhibition was inconclusive: -32.4% [inhibitor]. With `CC1CC(C)CN(S(=O)(=O)c2ccc(NC(=O)C3CSC4(C)CCC(=O)N34)cc2)C1` (stereo unspecified) the Potency was active: 23.1 µM. For `COc1cccc(CNC(=O)Cc2csc(NC(=O)Nc3ccccc3OC)n2)c1`, the Potency was inconclusive [inhibitor, single point]. In the case of `CCCc1cc(=O)oc2cc(OC3CCCCC3=O)ccc12` (stereo unspecified), the “activity change, negative = growth inhibition” value is reported as inactive: 3.64%. In the case of `Cc1ccc(SCC(=O)Nc2ccccc2N2CCOCC2)cc1`, the Potency is reported as inconclusive [inhibitor, single point]. In the case of `COc1ccccc1C(=O)NNC(=O)c1cc2ccccc2cc1O`, the Potency is reported as active: 13 µM. In the case of `CC(C)[C@@H](CO)NC(=O)c1ccc2c3n(nc2c1)-c1ccc(Cl)cc1CO3`, the Potency is reported as inconclusive [inhibitor, single point]. In the case of `Cc1ccc(S(=O)(=O)N2CCc3cc(C(=O)Nc4ccc(C(F)(F)F)cc4)ccc32)cc1`, the Potency is reported as inconclusive [inhibitor, partial curve]. With `Cc1ccc(CCNC(=O)C2CCN(S(=O)(=O)N3CCC4(CC3)OCCO4)CC2)cc1` the Potency was inconclusive [inhibitor, single point]. With `CCn1c(CNC(=O)c2ccco2)nnc1SCC(=O)Nc1cc(F)ccc1C` the “activity change, negative = growth inhibition” value was inactive: 8.28%. In the case of `CCCCc1ccc(Nc2nc(N3CCOCC3)nc(N3CCOCC3)n2)cc1`, the Potency is reported as inconclusive [inhibitor, single point]. In the case of `CC1(C)CC(Nc2ccc(Nc3ccccc3)cc2)CC(C)(C)N1`, the Potency is reported as active: 16.4 µM. In the case of `COc1cc(-n2c(N)c(C(=O)NCc3ccco3)c3nc4ccccc4nc32)cc(OC)c1OC`, the Potency is reported as inconclusive [inhibitor, single point]. For `Cc1ccc(C)c(CN2CCCN(C(=O)Cn3ncc4c3-c3ccccc3OC4)C2)c1`, the Potency was active: 13 µM. With `N[C@H](CCC(=O)NCC(=O)O)C(=O)O` the Potency was inconclusive [inhibitor, single point]. With `Fc1ccc(NC(=S)N2CCN(C/C=C/c3ccccc3)CC2)c(F)c1` the Potency was inconclusive [inhibitor, single point]. With `O=C(NCc1cccnc1)c1cc(C2CCCN(C(=O)c3cccs3)C2)on1` (stereo unspecified) the Potency was inconclusive [inhibitor, partial curve, poor fit]. With `COc1ccc(CNS(=O)(=O)c2cc3c4c(c2)CCN4C(=O)CC3)cc1` the Potency was inconclusive [inhibitor, partial curve, poor fit]. With `COC(=O)[C@@]1(Cc2ccc(F)cc2)[C@H]2c3cc(C(=O)N4CCCC4)n(Cc4cc(F)cc5c4OCOC5)c3C[C@H]2CN1C(=O)c1ccccc1` the Potency was inconclusive [inhibitor, single point]. For `O=S(=O)(Nc1nc2ccccc2nc1Nc1ccccc1Br)c1ccccc1`, the “activity change, negative = growth inhibition” value was inactive: -8.02%. In the case of `O=C(NCC(c1ccco1)N1CCCC1)c1sc2ccccc2c1Cl` (stereo unspecified), the Potency is reported as inconclusive [inhibitor, single point]. For `Fc1ccc(-c2ccc(CNCCSc3nnnn3-c3ccccc3)o2)cc1`, the Potency was inconclusive [inhibitor, single point]. For `COc1ccc(Oc2nc3c(c(=O)n(C)c(=O)n3C)n2C)cc1`, the Potency was inconclusive [inhibitor, partial curve, poor fit].
